B1: Example 28-conjugated (human) (n=2) (conjugate)
heavy: EVQLVESGGGLVKPGGSLRLSCAASGFTFSDYGMNWVRQAPGKGLEWIAYISSGRGNIYYADTVKGRFTISRDNAKNSLYLQMNSLRAEDTAVYYCARSWGYFDVWGQGTTVTVSSASTKGPSVFPLAPSSKSTSGGTAALGCLVKDYFPEPVTVSWNSGALTSGVHTFPAVLQSSGLYSLSSVVTVPSSSLGTQTYICNVNHKPSNTKVDKKVEPKSCDKTHTCPPCPAPEAAGGPSVFLFPPKPKDQLMISRTPEVTCVVVDVSHEDPEVKFNWYVDGVEVHNAKTKPREEQYNSTYRVVSVLTVLHQDWLNGKEYKCKVSNKALPAPIEKTISKAKGQPREPQVYTLPPSREEMTKNQVSLTCLVKGFYPSDIAVEWESNGQPENNYKTTPPVLDSDGSFFLYSKLTVDKSRWQQGNVFSCSVLHEALHNHYTQKSLSLSPGK
light: DIVMTQSPDSLAVSLGERATINCKSSQSLLNRGNQKNYLTWFQQKPGQPPKLLIYWASTRESGVPDRFSGSGSGTDFTLTISSLQAEDVAVYYCQNDYTYPLTFGQGTKLEIKRTVAAPSVFIFPPSDEQLKSGTASVVCLLNNFYPREAKVQWKVDNALQSGNSQESVTEQDSKDSTYSLSSTLTLSKADYEKHKVYACEVTHQGLSSPVTKSFNRGEC
B2: Example 13-hydrolyzed (human) (conjugate)
heavy: B1 heavy
light: B1 light
B3: Example 28-conjugated (human) (n=4) (conjugate)
heavy: B1 heavy
light: B1 light
B4: Example 12-hydrolyzed (human) (conjugate)
heavy: B1 heavy
light: B1 light

system: HEK293 parental GRE (pGL4.36[luc2P/MMTV/Hygro]) cells; assay: GRE reporter assay in parental cells without CD40; format: cell-based; details: anti-human CD40 ADCs, 72 hours
Method: In order to create a parental cell line, HEK293 cells were seeded onto a 6 well dish (Costar: 3516) with 2 mL of complete growth medium (RPMI, 10% FBS, 1% L-glutamine, 1% Na Pyruvate and 1% MEM NEAA) at 250,000 cells per well for 24 hours at 37° C., 5% CO2. The next day, 3 μg of pGL4.36[Luc2P/MMTV/Hygro] (Promega: E316) and 3 μl of PLUS reagent (Invitrogen: 10964-021) were diluted into 244 μL, Opti-MEM (Gibco: 31985-070) and incubated at room temperature for 15 minutes. The pGL4.36[luc2P/MMTV/Hygro] vector contains MMTV LTR (Murine Mammary Tumor Virus Long Terminal Repeat) that drives the transcription of the luciferase reporter gene luc2P in response to activation of several nuclear receptors such as glucocorticoid receptor and androgen receptor. After incubation, diluted DNA solution was pre-incubated with 1:1 Lipofectamine LTX solution (Invitrogen: 94756) (13.2 μl+256.8 μl Opti-MEM) and incubated at room temperature for 25 minutes to form DNA-Lipofectamine LTX complexes. After incubation, 500 μl of DNA-Lipofectamine complexes were added directly to the well containing cells. HEK293 cells were transfected for 24 hours at 37° C., 5% CO2. After incubation, cells were washed with 3 mL of phosphate buffer saline (PBS) and selected with complete growth medium containing 100 μg/mL of hygromycin B (Invitrogen: 10687-010) for two weeks. “HEK293 GRE pGL4.36[Luc2P/MMTV/Hygro]” cells were produced.
HEK293 parental GRE (pGL4.36[luc2P/MMTV/Hygro]) cells and HEK293 mCD40 or hCD40 GRE (pGL4.36[luc2P/MMTV/Hygro]) cells were plated onto 96 well tissue culture treated white plates (Costar: 3917) at 20,000 cells per well in 75 μL of assay medium (RPMI, 1% CSFBS, 1% L-glutamine, 1% Na Pyruvate and 1% MEAA) and incubated for 24h at 37° C., 5% CO2. The next day, cells were treated with 25 μL of 4× serial diluted murine or human anti-CD40 antibody drug conjugates in assay medium, steroid compound, or media alone and incubated for 72 hours at 37° C., 5% CO2. After 72 hours of incubation, cells were treated with 100 μL of Dual-Glo Luciferase Assay System (Promega-E2920) for 10 minutes and analyzed for luminescence using the Microbeta (PerkinElmer). Data were analyzed using a four parameter curve fit to generate EC50 values. Percent (%) maximum activation was normalized to 100 nM dexamethasone, which was considered maximum activation.

Molecule	HEK293 GRE EC50 [µg/mL]
B1	>50
B2	>50
B3	>50
B4	>17

same assay, conditions: anti-human CD40 ADCs, normalized to 100 nM dexamethasone

Molecule	HEK293 GRE (% max) [%]
B1	82
B2	27
B3	64
B4	117

system: not listed separately; assay: Size exclusion chromatography (SEC): monomer / aggregation of ADC; format: physicochemical; details: SEC; test articles of Table 17 (anti-human CD40 ADCs)

Molecule	% monomer [%]
B1	100
B2	99.8
B3	100
B4	98.2

same assay, conditions: purified DAR2 / DAR4 ADC fraction after AEC

Molecule	aggregation [%]
B1	0
B3	0

same assay, conditions: test articles of Table 18

Molecule	% monomer (SEC) [%]
B1	100
B2	99.8
B3	100
B4	98.2

system: LPS and CD40L-stimulated human monocyte-derived DCs (MoDCs); assay: LPS and CD40L-stimulated human MoDC cytokine release assay; format: cell-based; details: FIG. 2, IL-6 release

Molecule	maximum capacity to inhibit immune cell activation compared with parental antagonist antibody
B2	exceeds inhibition provided by the parental antagonist antibody
B4	exceeds inhibition provided by the parental antagonist antibody
